Assay results taken from patent US20250223331A1, “GLP-1/GIP DUAL-TARGETED POLYPEPTIDE AND FUSION PROTEIN AND APPLICATIONS THEREOF” (SUNSHINE LAKE PHARMA CO., LTD., priority 2021, published 2025).

Key:
[1] = molecular target: GLP-1R (UniProt P43220); test: cell-based or functional assay
[2] = molecular target: T1, GIPR (UniProt P48546 22-466, limits assumed); test: cell-based or functional assay
T1 sequence (looked up): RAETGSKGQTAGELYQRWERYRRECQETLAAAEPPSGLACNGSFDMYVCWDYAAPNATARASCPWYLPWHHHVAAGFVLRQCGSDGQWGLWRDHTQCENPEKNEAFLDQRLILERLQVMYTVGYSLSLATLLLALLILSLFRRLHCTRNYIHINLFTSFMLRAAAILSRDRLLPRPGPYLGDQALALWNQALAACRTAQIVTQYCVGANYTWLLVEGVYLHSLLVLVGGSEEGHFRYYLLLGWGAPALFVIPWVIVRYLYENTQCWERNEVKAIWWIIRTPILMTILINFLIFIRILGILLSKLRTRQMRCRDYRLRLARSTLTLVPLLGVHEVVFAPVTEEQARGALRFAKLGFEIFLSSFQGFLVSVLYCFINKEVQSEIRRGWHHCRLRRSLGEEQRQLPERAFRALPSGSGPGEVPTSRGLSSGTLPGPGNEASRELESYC

Binder | EC50, cAMP [1] [pM] | EC50, cAMP [2] [pM]
HEC-G93 (Fc fusion) YGEGTFTSDYSIYLDKIAQQAFVEWLLAGGPSSGAPPPSGGGGSGGGGSGGGGSA[here human IgG4 Fc with S228P F234A L235A (EU numbers) without letters] | 8590 | 437
HEC-G123 (Fc fusion) YSEGTFTSDYSILLDKIAQREFVQWLLAGGPSSGAPPPSGGGGSGGGGSGGGGSA[here human IgG4 Fc with S228P F234A L235A (EU numbers) without letters] | 1050 | 12
HEC-G107 (Fc fusion) YGEGTFTSDYSIYLDKKAQHDFVEWLLAGGPSSGAPPPSGGGGSGGGGSGGGGSA[here human IgG4 Fc with S228P F234A L235A (EU numbers) without letters] | 6470 | 235
HEC-G124 (Fc fusion) YSEGTFTSDYSILLDKIAQREFVQWLIAGGPSSGAPPPSGGGGSGGGGSGGGGSA[here human IgG4 Fc with S228P F234A L235A (EU numbers) without letters] | 168 | 24
HEC-G98 (Fc fusion) YSEGTFTSDYSIYLDKKAQQDFVEWLLAGGPSSGAPPPSGGGGSGGGGSGGGGSA[here human IgG4 Fc with S228P F234A L235A (EU numbers) without letters] | 18100 | 321
HEC-G117 (Fc fusion) HSEGTFTSDYSILLDKIAQREFIEWLLEGGPSSGAPPPSGGGGSGGGGSGGGGSA[here human IgG4 Fc with S228P F234A L235A (EU numbers) without letters] | 47 | 32
HEC-G95 (Fc fusion) YGEGTFTSDYSIYLDKLAQQAFVNWLLAGGPSSGAPPPSGGGGSGGGGSGGGGSA[here human IgG4 Fc with S228P F234A L235A (EU numbers) without letters] | 16100 | 2220
HEC-G101 (Fc fusion) YGEGTFTSDYSIYLDKKAQQDFIDWLLAGGPSSGAPPPSGGGGSGGGGSGGGGSA[here human IgG4 Fc with S228P F234A L235A (EU numbers) without letters] | 7470 | 177
HEC-G113 (Fc fusion) HSEGTFTSDYSILLDKIAQQDFVEWLLAGGPSSGAPPPSGGGGSGGGGSGGGGSA[here human IgG4 Fc with S228P F234A L235A (EU numbers) without letters] | 395 | 66
HEC-G100 (Fc fusion) YGEGTFTSDYSIYLDKKAQRDFINWLLAGGPSSGAPPPSGGGGSGGGGSGGGGSA[here human IgG4 Fc with S228P F234A L235A (EU numbers) without letters] | 211 | 464
HEC-G120 (Fc fusion) HSEGTFTSDYSILLDKIAQKEFIEWLLEGGPSSGAPPPSGGGGSGGGGSGGGGSA[here human IgG4 Fc with S228P F234A L235A (EU numbers) without letters] | 92 | 71
HEC-G115 (Fc fusion) YSEGTFTSDYSILLDKIAQREFIEWLLAGGPSSGAPPPSGGGGSGGGGSGGGGSA[here human IgG4 Fc with S228P F234A L235A (EU numbers) without letters] | 1080 | 42
HEC-G105 (Fc fusion) YGEGTFTSDYSIYLDKIAQRDFIEWLIAQGPSSGAPPPSGGGGSGGGGSGGGGSA[here human IgG4 Fc with S228P F234A L235A (EU numbers) without letters] | 6950 | 1920
HEC-G119 (Fc fusion) YSEGTFTSDYSILLDKIAQKEFIEWLLAGGPSSGAPPPSGGGGSGGGGSGGGGSA[here human IgG4 Fc with S228P F234A L235A (EU numbers) without letters] | 8740 | 25
HEC-G112 (Fc fusion) YGEGTFTSDYSIYLDKQAQHAFIEWLIAGGPSSGAPPPSGGGGSGGGGSGGGGSA[here human IgG4 Fc with S228P F234A L235A (EU numbers) without letters] | 268 | 564
HEC-G104 (Fc fusion) YGEGTFTSDYSIYLDKKAQQDFIEWLIAQGPSSGAPPPSGGGGSGGGGSGGGGSA[here human IgG4 Fc with S228P F234A L235A (EU numbers) without letters] | 14900 | 762
HEC-G97 (Fc fusion) YSEGTFTSDYSIALDKKAQRDFVEWLLAGGPSSGAPPPSGGGGSGGGGSGGGGSA[here human IgG4 Fc with S228P F234A L235A (EU numbers) without letters] | 4380 | 825
HEC-G116 (Fc fusion) HSEGTFTSDYSILLDKIAQREFIEWLLAGGPSSGAPPPSGGGGSGGGGSGGGGSA[here human IgG4 Fc with S228P F234A L235A (EU numbers) without letters] | 42 | 34
HEC-G94 (Fc fusion) YGEGTFTSDYSIYMDKLAQQAFVEWLLAGGPSSGAPPPSGGGGSGGGGSGGGGSA[here human IgG4 Fc with S228P F234A L235A (EU numbers) without letters] | 8280 | 255
HEC-G102 (Fc fusion) YGEGTFTSDYSIYLDKKAQRDFINWLIAQGPSSGAPPPSGGGGSGGGGSGGGGSA[here human IgG4 Fc with S228P F234A L235A (EU numbers) without letters] | 378 | 545
HEC-G114 (Fc fusion) HSEGTFTSDYSILLDKIAQHDFIEWLIAGGPSSGAPPPSGGGGSGGGGSGGGGSA[here human IgG4 Fc with S228P F234A L235A (EU numbers) without letters] | 47 | 34
HEC-G99 (Fc fusion) YGEGTFTSDYSIALDKKAQRDFIDWLLAGGPSSGAPPPSGGGGSGGGGSGGGGSA[here human IgG4 Fc with S228P F234A L235A (EU numbers) without letters] | 1940 | 1140
HEC-G106 (Fc fusion) YGEGTFTSDYSILLDKKAQRDFVEWLLAGGPSSGAPPPSGGGGSGGGGSGGGGSA[here human IgG4 Fc with S228P F234A L235A (EU numbers) without letters] | 945 | 477
HEC-G103 (Fc fusion) YGEGTFTSDYSIALDKKAQRDFIEWLIAQGPSSGAPPPSGGGGSGGGGSGGGGSA[here human IgG4 Fc with S228P F234A L235A (EU numbers) without letters] | 4920 | 1220
HEC-G118 (Fc fusion) HSEGTFTSDYSILLDKIAQKEFIEWLLAGGPSSGAPPPSGGGGSGGGGSGGGGSA[here human IgG4 Fc with S228P F234A L235A (EU numbers) without letters] | 76 | 39
HEC-G121 (Fc fusion) YSEGTFTSDYSILLDKIAQRAFIEWLLAGGPSSGAPPPSGGGGSGGGGSGGGGSA[here human IgG4 Fc with S228P F234A L235A (EU numbers) without letters] | 417 | 36
HEC-G96 (Fc fusion) YSEGTFTSDYSIYLDKIAQRDFVEWLLAGGPSSGAPPPSGGGGSGGGGSGGGGSA[here human IgG4 Fc with S228P F234A L235A (EU numbers) without letters] | 3660 | 547
HEC-G122 (Fc fusion) YSEGTFTSDYSILLDKIAQREFIEWLIAGGPSSGAPPPSGGGGSGGGGSGGGGSA[here human IgG4 Fc with S228P F234A L235A (EU numbers) without letters] | 155 | 23
